Assay results from PMC12136788.
The other results are listed elsewhere or left out.

T1: UNK ZnF1-3 (human, UniProt Q9C0B0 31-174)
T1 sequence: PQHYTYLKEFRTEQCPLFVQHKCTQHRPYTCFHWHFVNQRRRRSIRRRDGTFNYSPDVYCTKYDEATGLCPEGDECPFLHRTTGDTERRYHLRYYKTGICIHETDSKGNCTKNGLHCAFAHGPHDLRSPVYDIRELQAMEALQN

B1: chrX:12734859:12734860:+_ENSMUSG00000031010_ENSMUST00000089302|mus_hu|FALSE|FALSE (ssRNA)
RNA: GGGAGUUCUACAGUCCGACGAUCAUCACUGGCAGAGCCACGGACUACUUUCUUUGUGUGAAAUCCUGUAGUAAAGAGGAACCUAGCAGCAAGUUGAAUACUGAUCAUAGUGAUUUCUUCUGCUUCAGGCAACAGGUGAUCUUGCAACAGAGGAUUGAGCAUCA
B2: chr17:87832841:87832842:-_ENSMUSG00000036438_ENSMUST00000040440|perfect_dup|motif|central (ssRNA)
RNA: GGGAGUUCUACAGUCCGACGAUCUAUACAACUUGGAAUGGAUUUUGAGGCAAAUUGUGCCAUAAGCAGAUUUUAAGUGGCGGAACAAAGUUUAAAAAGCAAGUAACAAUAAAAGAAAAUGUUUCUGGUACAGGACCAGCAGUACAACAGAGGAUUGAGCAUCA
B3: 42725189_42729127_464_CDS_ENSG00000120925_ENST00000527424|human|control|control (ssRNA)
RNA: GGGAGUUCUACAGUCCGACGAUCUUGGUGCAGGCAGAUGGGACAGUACAUGUCAGUGUAGAACUGCUGUCGAGUGGCAGCAGGUGCAUCCUGUUCUGUUUGAAGCUGUUCUCGAAGUACCCUUACUAGCUCCUGGUUUUCUGGCAACAGAGGAUUGAGCAUCA
B4: chr14:89307221:89307222:+_ENSG00000165533_ENST00000346301|hu_mus|hu_hu_hu_mus_False|58_68 (ssRNA)
RNA: GGGAGUUCUACAGUCCGACGAUCUCCUGUUUGGUUAGUGCCAGGGAGCUUCAAAGAUGUGCCAGGGCGUGGAACUUGAGCUAUAGCAUUUUCAUCCAGGAUCAUUUCAGCAAUUCCUUCCUGGUCCACAUCAAUUUCAUCUAUCAACAGAGGAUUGAGCAUCA
B5: chr5:162868235:162868236:+_ENSG00000113328_ENST00000340828|hu_hu|FALSE|FALSE (ssRNA)
RNA: GGGAGUUCUACAGUCCGACGAUCCCAACACACCUUCUCCAAUACAAUCUUUUCCAUUCUCAUCAAGUCUGAAACCGUAAACCUAUAUUGACUUAUUCGGAUCAAGUCAGUUGCCAAUGGGACAUUCCUUUCCUCUUCUAUUGACAACAGAGGAUUGAGCAUCA
B6: chr14:89338683:89338684:+_ENSG00000165533_ENST00000346301|hu_hu|hu_hu_hu_mus_False|38_58 (ssRNA)
RNA: GGGAGUUCUACAGUCCGACGAUCGUGGUUGUUGUGGACCAGGGCCAGCCUGAAGCAUUGGUGGGCCAAGUUUGUAUCUCCUAUUCCCACAGCUAUGUGUCCCAAGUUGUACCAGACAUCAGCUGCCUCUUCUUCAUUUUCAGCCAACAGAGGAUUGAGCAUCA
B7: 11615646_11615766_1029_3pUTR_ENSMUSG00000031508_ENSMUST00000169782|mouse|control|control (ssRNA)
RNA: GGGAGUUCUACAGUCCGACGAUCGAACUCAGAAAUAGUAAGCAUACUGAUUCUUGCAACGACAAGGGGUUUGCAUUGCUGAAACAGUAUAUAUCUCUAUUUCUUUAGGUCCAACAGAACUACUCUCCUGUUGCUUGGUGUCCUCAACAGAGGAUUGAGCAUCA
B8: chr6:41757443:41757444:+_ENSG00000214736_ENST00000398881|hu_mus|hu_hu_hu_mus_False|88_108 (ssRNA)
RNA: GGGAGUUCUACAGUCCGACGAUCGAACUGUCUGCUGGCAACAUCUCGGAAUUCUGCGGGGGAUGGGGGGGCAGUGGGGGGGGGUUCAGGCAAGGAGAGGGAGUCAACUUCAGCUGCCACUCAGGUAGGAUCUUGUGGUCACAGCAACAGAGGAUUGAGCAUCA
B9: chr22:32879901:32879902:+_ENSG00000100225_ENST00000397426|hu_mus|hu_hu_hu_mus_False|98_108 (ssRNA)
RNA: GGGAGUUCUACAGUCCGACGAUCCUCUGCCAUAUGCGCAUUAUCUUGAAUUGACUCAGCUUCAACAUUUUGACUAGGCCCUUCCAUACUGUCAUCAGUCCAGGCAUCAAAUGGGGUGGCCUGUCCUUGGGAUGAAUCAGUCCCCAACAGAGGAUUGAGCAUCA
B10: chr3:148802587:148802588:-_ENSG00000071794_ENST00000310053|hu_mus|hu_hu_hu_mus_False|18_98 (ssRNA)
RNA: GGGAGUUCUACAGUCCGACGAUCUCCAACAACUUGUCCUCUCAAACUUCCAAAUAAAACCAAAUCUUGCUCUUCAUCACUCGUUAGGAAGUCAUCUGGAGGAAUAAUGUCUUGGAAUUCAAAACGUGGCAAGAAAGUUGAGUACAACAGAGGAUUGAGCAUCA
B11: chr8:104433209:104433210:+_ENSG00000164934_ENST00000297579|hu_hu|motif|central (ssRNA)
RNA: GGGAGUUCUACAGUCCGACGAUCAAAGCCUUCAUGUGCUUGUAUUGUACGGAUACAAUUCCGCUGAGUUAGAUUCCAAAUUCGGACCUCUCCAUCACACGCCCCAGAAAGGACAGUAGCCAGCUUCUCUGGAUGCUUUGCCAACAACAGAGGAUUGAGCAUCA
B12: chr13:31711309:31711310:-_ENSG00000120694_ENST00000320027|hu_hu|motif|central (ssRNA)
RNA: GGGAGUUCUACAGUCCGACGAUCCAUAAAGACUACAGACUUAAGCUUUUUUUCUUUUUCCAUAUAAUACACAAAAUUUCGGAAUAUCCUUAAAAAAGAAAAUAUAAAUAGUUUCAGUAUGUUAUGUAGAGUCACAUACUAUGGCAACAGAGGAUUGAGCAUCA
B13: chr5:145598128:145598129:+_ENSMUSG00000045482_ENSMUST00000132925|mus_mus|FALSE|FALSE (ssRNA)
RNA: GGGAGUUCUACAGUCCGACGAUCGAGGUGUAUGCACAUGGGACACCACGUGGGGCAGCCGCCUCCACUCACGGAUAGCCAAGCUGCUGGCCAUCUCCACCAGGCGCUCAAUGAAGCUGAGCUGCUGUUCCUCGGGGUGGCAAACAACAGAGGAUUGAGCAUCA
B14: chr12:53619734:53619735:+_ENSMUSG00000035133_ENSMUST00000110725|mus_mus|FALSE|FALSE (ssRNA)
RNA: GGGAGUUCUACAGUCCGACGAUCUAUAUACCCAUGAACCAGUUCAUCUUUUCUUACUCCAAUUGAGGAGUGGUAUGACAAUAUUGUGAUCUGUAUUCGCCUCCUUUUUUCACCAAUAAUUUUGUCAAGCAUUAAAGAAUUAUUCAACAGAGGAUUGAGCAUCA

These binders were tested against T1, UNK ZnF1-3 (assay: nsRBNS (natural sequence RNA bind-n-seq); RBNS binding buffer (assumed for nsRBNS): 25 mM Tris pH 7.5, 150 mM KCl, 3 mM MgCl2, 0.01% Triton X-100, 500 ug/ml BSA, 20 U/ml SUPERase-In, 4 C; UNK is unkempt and MSI1 is Musashi-1; names of the RNAs are library labels; protein concentration not given here; high values mean tight binding).

Binder | binding signal [enrichment R]
B1 | 1.16
B2 | 1.53
B3 | 0.739
B4 | 0.86
B5 | 0.878
B6 | 0.762
B7 | 0.505
B8 | 0.948
B9 | 1.03
B10 | 1.09
B11 | 0.96
B12 | 0.621
B13 | 0.898
B14 | 0.891
